This is one part of the list. At the low end of the ranking the order means little.

For this test, the target named is T1, GST-Rok (full length) (UniProt O34857).
T1 sequence: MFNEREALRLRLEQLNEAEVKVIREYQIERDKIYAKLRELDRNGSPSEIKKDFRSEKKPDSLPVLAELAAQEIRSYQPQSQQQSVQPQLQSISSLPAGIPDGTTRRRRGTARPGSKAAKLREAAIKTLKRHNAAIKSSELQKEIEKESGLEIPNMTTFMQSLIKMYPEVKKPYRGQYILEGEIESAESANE
The experiment in a line: protein binding microarray.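 Further: rank score from −0.5 (least bound) to 0.5 (best bound).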 The settings on record: Rok is a gene silencer of Bacillus subtilis; high values mean tight binding; most listed sequences are background and not binding sites; double strand, one strand shown.
In turn, CACCCGAC gave a binding signal of -0.335 E-score. The sequence AATTAGAC displayed a binding signal of 0.085 E-score. The sequence CATGTTCA showed a binding signal of 0.0566 E-score.

As for GAAACTAA, the binding signal stood at 0.244 E-score. The sequence ATGCGTAG yielded a binding signal of 0.0828 E-score. AATTGAAA: the binding signal amounted to 0.0815 E-score. Under GACGCTAC stands 0.192 E-score; under AGCAGCCG, -0.245 E-score. As for CACTCCAA, the binding signal was -0.121 E-score. The sequence TAGCCGCA yielded a binding signal of -0.0859 E-score. Sequence TGTCTGAA yielded a binding signal of -0.166 E-score. Under CCTACTTC stands 0.211 E-score. Take CTAGCACA: the binding signal was found to be 0.21 E-score.

GGTGCGGA came in with a binding signal of -0.213 E-score. GGCAAAAA came in with a binding signal of -0.188 E-score. Turning to CTGGTGTC, the binding signal is -0.204 E-score.

AGTGACTC had a binding signal of -0.124 E-score. Under CAATCTGG stands -0.0384 E-score; under CGGCCGAA, -0.247 E-score; under TCACTAGA, 0.0687 E-score. The sequence ACTAGGGG displayed a binding signal of -0.0695 E-score. Then TGGAGTAA, with 0.14 E-score.

In turn, GCTGCGAC returned a binding signal of -0.222 E-score. Regarding AAGTCAAT, the binding signal is 0.226 E-score. Then CCCACTAG, with -0.0704 E-score; and GAATTGAA, with 0.134 E-score. The sequence GCCACAGA yielded a binding signal of -0.139 E-score. Under CGCCCGTA stands -0.0553 E-score; under ATTGCCCG, -0.181 E-score; under ACGCAATG, 0.0578 E-score.

Consider GAACAGGA, for which the binding signal is -0.0988 E-score. As to ACGACGCA, the binding signal worked out at 0.114 E-score. Then GTACTTTA, with 0.377 E-score; and GAAAGTGC, with -0.0988 E-score; and CCCATGCA, with -0.0773 E-score. Under ACCATTAT stands 0.241 E-score; under ACGCTTAT, 0.179 E-score; under AACTGCAT, 0.089 E-score. AGTTATGA displayed a binding signal of 0.184 E-score. Under CAGAGATG stands -0.234 E-score; under GCCGCACA, -0.309 E-score; under GTTTATCA, 0.0624 E-score. Under CCTTCCCG stands -0.281 E-score; under ATTCAAGG, -0.126 E-score. Under CGGACGGC stands -0.336 E-score; under AACTACGT, 0.306 E-score; under ACCTCTCT, -0.21 E-score. In turn, CCCTTGGA returned a binding signal of -0.314 E-score. Turning to AATTTTGT, the binding signal is 0.24 E-score. Then GTACCTAA, with 0.132 E-score; and ACTTCGCA, with 0.0607 E-score. Then AGTCATTC, with 0.0712 E-score; and CAACTCTC, with -0.0366 E-score; and CACCTGCC, with -0.272 E-score. Then ACTATGGC, with -0.059 E-score; and CTAACTTC, with 0.0524 E-score; and ATTTTCAC, with 0.169 E-score. As to AAGGCCGA, the binding signal was -0.334 E-score.

For CCAAATGA, the binding signal was -0.0153 E-score. In turn, ATGAATCG displayed a binding signal of 0.14 E-score. CTGGACAC came in with a binding signal of -0.0795 E-score. TATAGCCA displayed a binding signal of 0.0739 E-score. Then CCCCTTAA, with -0.267 E-score; and ATTCGCTC, with -0.069 E-score. Then CTGACCGA, with -0.157 E-score. Then CTCACATA, with -0.016 E-score; and ACGGTCGG, with -0.251 E-score; and GCTGTACA, with 0.0568 E-score.

AGGGACGG displayed a binding signal of -0.37 E-score. Under GTTGCCCA stands -0.231 E-score; under GAAGCTAC, 0.323 E-score; under TGTCAACA, -0.103 E-score. Under AAGTCATT stands 0.0424 E-score. Then GAATATCC, with 0.206 E-score; and CTCCCGCC, with -0.424 E-score. In the case of CCTGGATC, the binding signal worked out at 0.022 E-score. Sequence CGACTACG gave a binding signal of -0.0988 E-score.

As to CGAAGGGC, the binding signal is -0.255 E-score. Under AGAGCTCA stands -0.0756 E-score; under AGGCGTAG, -0.0776 E-score; under GCCCGGGA, -0.28 E-score. As for GGCGCCTA, the binding signal was -0.251 E-score. Sequence CCAAGCCG showed a binding signal of -0.28 E-score. Under ATACGCTC stands -0.126 E-score. Then CTTCAGTA, with 0.0731 E-score. Regarding CCGATCAC, the binding signal was -0.136 E-score. Under GGGTTAGA stands -0.175 E-score; under CCGTTTCG, -0.0408 E-score.

As to AGCACTAA, the binding signal was -0.126 E-score. Under GAAGACCC stands -0.277 E-score; under CCGTGTTC, 0.0288 E-score; under ACGTGCCC, -0.234 E-score. Turning to CACGCCTA, the binding signal stood at 0.0158 E-score.

Sequence AGAATAGC returned a binding signal of 0.0305 E-score.

CACTTAGG returned a binding signal of -0.0553 E-score. AGCGCAGC: the binding signal is -0.35 E-score. AGACGGGC had a binding signal of -0.126 E-score.

The sequence CTCAGAAA yielded a binding signal of -0.0607 E-score. On to AGTTAAAC, for which the binding signal was found to be 0.0028 E-score. Then GACAAAAC, with -0.086 E-score; and AAAATGGA, with -0.04 E-score; and CTCCTGCC, with -0.201 E-score. Then GCCCCAGA, with -0.149 E-score; and CCCTAGGG, with -0.38 E-score. Under CAACTGAC stands -0.0595 E-score. As for ACGTACCC, the binding signal was -0.184 E-score. Then AGCGTCTA, with 0.0457 E-score; and ATCAAGCC, with -0.197 E-score; and GTGAAATA, with 0.147 E-score. Then CCCAGTCC, with -0.217 E-score.

The values above are taken from paper PMC6212790.
